Test results: PubChem BioAssay AID686970 (National Center for Advancing Translational Sciences (NCATS), 2013)
Screen size: about 360,000 compounds; about 6,000 (1.7%) were called active. The shares of active, inactive and inconclusive entries below differ from those in the screen. Calls come from the whole dose curve; as a rule, active = well fitted cell-killing curve with a large enough effect; inconclusive = small, poorly fitted or top-dose-only effect, or effect the other way; inactive = flat fitted curve, though single readings scatter. No potency is given beside an inconclusive call; the fits are too rough.

experiment: qHTS for induction of synthetic lethality in tumor cells producing 2HG: qHTS for the HT-1080-NT fibrosarcoma cell line; settings: HT-1080-NT fibrosarcoma viability, CellTiter-Glo ATP luminescence, 48 h; activity, negative = less viability: at 46.1 µM (top of the series) unless noted;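 note: NT is the 2HG producing partner of a matched IDH1 knockdown line; nearly all actives have a fitted effect of over 55% in size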;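 for activity, negative = less viability: 0% = DMSO-treated cells and -100% = media-only wells without cells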
Method in brief: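 HT-1080-NT fibrosarcoma cells (2HG-overproducing), 750 cells/well in RPMI with 5% FBS, dosed after 2 h and incubated 48 h at 37C. CellTiter-Glo luminescence normalized to DMSO and no-cell wells; concentration-response curves fitted and classed.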
Potency is the fitted concentration of half-maximal effect; tags give direction and shape of the fitted curve.

SMILES | Potency | activity, negative = less viability
CCOC(=O)c1c(NC(=O)CSc2c[nH]c3ccccc23)sc2c1CCC2 | inconclusive [cytotoxic, single point] | –
CC(=O)c1cccc(NC(=O)/C=C/c2ccc([N+](=O)[O-])s2)c1 | inconclusive [cytotoxic, single point] | –
c1ccc(CNCCCNCCCCNCCCNCc2ccccc2)cc1 | inconclusive [cytotoxic, single point] | –
CC(C)CCC(O)(c1ccccc1)C(CN1CCOCC1)c1ccccc1 (stereo not drawn) | inconclusive [cytotoxic, single point] | –
CC1CCCCN1Cc1c(O)ccc2c(=O)c(-c3ccc(Br)cc3)coc12 (stereo not drawn) | inactive | –
N#Cc1ccc(C(=O)NC2CCCc3ccccc32)cc1 (stereo not drawn) | inconclusive [cytotoxic, single point] | –
O=C(CNc1cccc2ccccc12)N/N=C/c1cccc(Oc2ccccc2)c1 | inconclusive [cytotoxic, single point] | –
CCCCCCN1C[C@H](n2cc(COC(=O)c3ccccc3)nn2)[C@@H](O)C[C@@H]1c1ccc(OC)cc1 | inactive | –
CC[C@H](C)[C@@H]1NC(=O)[C@@H](CC(C)C)NC(=O)[C@H](C(C)C)NC(=O)[C@H]2CSSC[C@H](NC1=O)C(=O)N2 | active: 0.461 µM | –
COc1ccc(C(=O)N2N=C(c3cccc(OC)c3)CC2(O)C(F)(F)F)cc1 (stereo not drawn) | inactive | –
COc1ccc(/C=N/NC(=O)c2cccnc2)cc1CSc1ccccn1 | active: 23.1 µM | –
COc1ccc(/C=C/C(=O)c2ccc3c(c2)OCCO3)cc1[N+](=O)[O-] | inactive | –
COc1ccc(NC(=O)c2cc3c(-c4ccc(OC)c(OC)c4)nn(C)c3s2)cc1OC | inconclusive [cytotoxic, single point] | –
C=CCn1c(CCNC(=O)c2ccc(Cl)c(Cl)c2)nnc1SCCOc1ccc(OC)cc1 | inconclusive [cytotoxic, single point] | –
CC1CCCN(C(=O)CSCC(=O)N=c2sc3ccccc3n2C)C1 (stereo not drawn) | inactive | –
CCc1nc2ccc(C(=O)Nc3ccc(OC)c(OC)c3)cn2c1N(CC)Cc1cccc(Br)c1 | inconclusive [cytotoxic, single point] | –
CCCOc1ccccc1C1CC(=O)Nc2cc3c(cc21)OCO3 (stereo not drawn) | active: 8.2 µM | –
Oc1ccc(/C=N/Nc2ccnc3cc(Cl)ccc23)cc1O | inconclusive [cytotoxic, single point] | –
O=C(NCc1nnc2c(C(F)(F)F)cc(Cl)cn12)c1ccco1 | inactive | –
Cc1ccc(OCC(=O)Nc2ccccc2-c2ccccc2NC(=O)COc2ccc(C)cc2)cc1 | inactive | –
COc1ccc(-c2coc3cc4oc(=O)cc(-c5ccccc5)c4cc23)cc1F | active: 6.51 µM | –
Cc1cc(Cl)ccc1C(O)c1ncc(-c2ccc(F)cc2)[nH]1 (stereo not drawn) | inconclusive [cytotoxic, partial curve] | –
COc1ccccc1-c1cc(C(F)(F)F)nc(S(=O)(=O)CCCC(=O)N2CCOCC2)n1 | active: 16.4 µM | –
CCN(CC)S(=O)(=O)c1cccc(C(=O)NC(C(=O)NNC(=O)c2ccccc2F)C(C)C)c1 (stereo not drawn) | inactive | –
COc1cccc(-c2cnc3c(NC=O)cc(-c4cc(OC)c(OC)c(OC)c4)cn23)c1 | inconclusive [cytotoxic, partial curve] | –

SMILES | Potency | activity, negative = less viability
O=C(NCc1cccs1)c1noc2c1CCCCC2 | inconclusive [cytotoxic, single point] | –
O=C(NCCc1ccc(Cl)cc1)Nc1cccc(Cl)c1 | inconclusive [cytotoxic, single point] | –
COc1cc(C(=O)N2CCCCC2c2cc(C(=O)NC(C)C)no2)cc(OC)c1C (stereo not drawn) | inconclusive [rising, single point] | –
CCC(C)(C)NC(=O)Cc1ccc(C)cc1 | inactive | –
CC1CCN(S(=O)(=O)c2cccc(-c3cn4cc(Cl)ccc4n3)c2)CC1 | inactive | –
Cc1cccc(NC(=S)N2CCN(c3cc(C)ccc3C)CC2)c1 | inactive | –
C=CC1=C(C(=O)O)N2C(=O)[C@@H](NC(=O)/C(=N/OCC(=O)O)c3csc(N)n3)[C@H]2SC1 | inconclusive [rising, partial curve, poor fit] | –
Cn1c(SCC(=O)N/N=C/c2ccc([N+](=O)[O-])s2)nnc1-c1ccc(Cl)cc1 | inconclusive [cytotoxic, single point] | –
COc1cc(C2c3cc4c(cc3OC(N3CCOCC3)C2C)OCO4)cc(OC)c1OC(C)=O (stereo not drawn) | inconclusive [cytotoxic, single point] | –
Cc1cc(C)n(-c2cc(N3CCN(C(=O)c4ccc(C(C)(C)C)cc4)CC3)ccc2[N+](=O)[O-])n1 | inconclusive [cytotoxic, single point] | –
Cc1onc(-c2ccccc2Cl)c1C(=O)O/N=C(\N)c1ccccc1 | inconclusive [cytotoxic, single point] | –
OCCNCc1c(OCc2ccc(Cl)cc2)ccc2ccccc12 | active: 23.1 µM | –
O=C(NNC(=S)NC(=O)c1ccccc1)c1ccc(O)cc1 | inactive | –
COc1ccc(N2CCN(c3oc(-c4ccc(OC)c(OC)c4)nc3C#N)CC2)cc1 | inactive | –
O=C(O)c1ccc(/C=C2/SC(=S)N(Cc3ccccc3)C2=O)cc1 | inactive | –
Cn1c(/C=C/c2ccc(Cl)cc2)nc2ccccc2c1=O | inconclusive [cytotoxic, partial curve, poor fit] | –
COc1ccc(-c2c(-c3ccccc3)n(C)c3ccccc23)cc1 | inactive | –
CC(NC(=O)C1CCC(CNS(=O)(=O)c2ccccc2)CC1)c1ccccc1 (stereo not drawn) | inactive | –
Cc1cc(S(=O)(=O)Nc2ccc3ccccc3c2)c(C)s1 | active: 12.6 µM | –
Cc1cc(NC(=O)c2ccc3c(c2)OCCO3)ccc1NC(=O)c1ccco1 | – | inconclusive: -32.4% [cytotoxic]
C[C@H]1CCCCO[C@H](CN(C)CC2CCCCC2)[C@@H](C)CN([C@@H](C)CO)C(=O)c2cc(NS(=O)(=O)c3ccccc3)ccc2O1 | inconclusive [cytotoxic, single point] | –
N=c1ccn(Cc2ccccc2Cl)cc1 | inactive | –
Cc1cccn2c(=O)c3cc(C(=O)NCc4ccc(F)cc4)c(=N)n(CCCN4CCOCC4)c3nc12 | inactive | –
O=S(=O)(c1ccc(S(=O)(=O)N2CCC(O)CC2)cc1)N1CCCC1 | inactive | –
Cc1ccccc1NC(=O)c1cc(C(=O)c2cc(Cl)ccc2O)cn(-c2ccccc2C)c1=O | inconclusive [cytotoxic, single point] | –

SMILES | Potency | activity, negative = less viability
O=C(NS(=O)(=O)Nc1ccc(Br)cn1)c1c[nH]c2ccccc12 | inactive | –
COc1ccc(-c2[nH]c(-c3ccc(Cl)cc3)nc2SCC(=O)Nc2nccs2)cc1 | inconclusive [cytotoxic, partial curve] | –
CCN(CC)c1ccc(/C=C(\C#N)c2ccccn2)cc1 | inconclusive [cytotoxic, partial curve] | –
CC(C)CNC(=S)N(Cc1ccco1)Cc1cc2cc3c(cc2[nH]c1=O)OCCO3 | inconclusive [cytotoxic, single point] | –
COc1nc(/C=C/N(C)C)c([N+](=O)[O-])c(OC)n1 | inconclusive [cytotoxic, single point] | –
CCCC(NC(=O)C(C)NC(=O)CO/N=C1\C=C2CCC3C4CCC(C(C)=O)[C@@]4(C)CCC3[C@@]2(C)CC1)C(=O)O (stereo partly drawn) | inactive | –
CC(C)Oc1ccc(CN2CCC2(C)C(=O)Nc2ccc(Cl)c(Cl)c2)cc1 (stereo not drawn) | inconclusive [cytotoxic, single point] | –
FC(F)(Cl)c1nnc2ccc(Cl)nn12 | inconclusive [cytotoxic, single point] | –
CCCCCCCCC(c1nc2ccccc2[nH]1)N1CCN=C1c1cc2ccccc2[nH]1 (stereo not drawn) | inconclusive [cytotoxic, single point] | –
CN(C)C(=O)CSc1cccc2cccnc12 | inconclusive [cytotoxic, partial curve] | –
CCc1ccc2c(c1)NC(=O)C2(C)Cc1ccc(Cl)s1 (stereo not drawn) | inconclusive [cytotoxic, single point] | –
COCCN(CCOC)c1ncc(Cl)c(C(=O)c2c(C)cc3ccccn23)n1 | inactive | –
Cc1ccc(C)c(NC(=O)CSc2nc3nc(-c4cccs4)cc(C(F)(F)F)c3c(=O)[nH]2)c1 | inconclusive [cytotoxic, partial curve] | –
O=C1CCNc2cc3ccccc3cc21 | inactive | –
CCN(CC)CCCNC(=O)c1csc(Nc2cccc3ccccc23)n1 | inconclusive [cytotoxic, single point] | –
C=CCN(c1ccccc1)S(=O)(=O)c1cccc(C(=O)N(CC)CC(=O)Nc2c(F)cccc2F)c1 | inactive | –
CCOC(=O)C(C)N1C(=O)S/C(=C/c2ccc3c(c2)n(C)c(=O)n3C)C1=O (stereo not drawn) | inactive | –
COc1ccccc1NC(=O)C(=O)NNS(=O)(=O)c1ccc2ccccc2c1 | inactive | –
COc1ccc(C(=O)C2CCCN(Cc3cccn3-c3nccs3)C2)cc1F (stereo not drawn) | inconclusive [cytotoxic, single point] | –
CC(C)(C)c1cc(CSC(=S)NC2CCS(=O)(=O)C2)c(Br)c(C(C)(C)C)c1 (stereo not drawn) | inconclusive [cytotoxic, single point] | –
O=C(Nc1ccccc1N1CCCCC1)C1=COCCO1 | inactive | –
Nc1ncnc(Nc2ccccc2Cl)n1 | inactive | –
O=C(Nc1ccc(-c2nc3c(ccc4ccccc43)o2)cc1)c1ccco1 | active: 10 µM | –
